# Experimental data from paper PMC4336329 (PLoS ONE, 2015).
# Out of some 310,000 compounds screened, about 2,200 (0.71%) showed an effect of 50% or more. Effects have a minus sign here. The list shows a part of the results.
# Molecular target: human ether-à-go-go-related gene (hERG) potassium channel (human, UniProt Q12809)
# Assay: primary screen, population patch clamp on CHO cells stably expressing hERG
# Chain of human ether-à-go-go-related gene (hERG) potassium channel (Q12809 whole entry, looked up): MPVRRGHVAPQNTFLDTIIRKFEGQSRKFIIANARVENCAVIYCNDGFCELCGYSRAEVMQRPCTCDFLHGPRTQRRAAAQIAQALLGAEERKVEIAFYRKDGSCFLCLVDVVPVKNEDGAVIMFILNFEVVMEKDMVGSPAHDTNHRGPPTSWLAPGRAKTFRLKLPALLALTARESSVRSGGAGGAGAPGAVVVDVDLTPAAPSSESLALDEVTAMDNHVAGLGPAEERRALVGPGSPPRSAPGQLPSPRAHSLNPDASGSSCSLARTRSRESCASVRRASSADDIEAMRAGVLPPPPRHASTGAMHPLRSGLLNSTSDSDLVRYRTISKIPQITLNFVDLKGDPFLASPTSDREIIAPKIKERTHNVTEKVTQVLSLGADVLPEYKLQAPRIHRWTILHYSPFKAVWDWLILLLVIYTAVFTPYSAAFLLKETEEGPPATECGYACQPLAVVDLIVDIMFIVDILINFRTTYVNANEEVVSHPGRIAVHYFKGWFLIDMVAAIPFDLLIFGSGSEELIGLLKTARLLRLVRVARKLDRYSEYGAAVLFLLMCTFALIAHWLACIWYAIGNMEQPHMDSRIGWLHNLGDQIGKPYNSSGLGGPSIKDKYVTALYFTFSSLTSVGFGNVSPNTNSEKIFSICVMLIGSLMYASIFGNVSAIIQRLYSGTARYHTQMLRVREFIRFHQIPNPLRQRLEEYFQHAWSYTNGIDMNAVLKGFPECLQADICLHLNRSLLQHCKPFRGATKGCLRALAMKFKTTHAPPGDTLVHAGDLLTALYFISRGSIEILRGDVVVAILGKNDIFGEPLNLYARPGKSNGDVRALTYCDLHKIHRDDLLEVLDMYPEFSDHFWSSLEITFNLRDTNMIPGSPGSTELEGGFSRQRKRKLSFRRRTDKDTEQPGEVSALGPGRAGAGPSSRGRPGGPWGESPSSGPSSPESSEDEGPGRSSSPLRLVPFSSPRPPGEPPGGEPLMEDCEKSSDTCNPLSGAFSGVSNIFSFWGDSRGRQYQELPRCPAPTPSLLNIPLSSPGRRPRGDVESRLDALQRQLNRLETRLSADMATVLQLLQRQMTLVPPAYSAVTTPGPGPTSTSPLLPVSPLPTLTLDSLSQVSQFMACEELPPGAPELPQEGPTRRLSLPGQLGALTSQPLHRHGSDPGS
row,Compound,"hERG current change (%, negative = inhibition) at 1uM [%]"
1,Cc1ccsc1/C=N/NC(=O)CN1CCN(Cc2ccccc2)CC1,2.4
2,CC(C)OCC(O)CCc1n[nH]c(=S)n1-c1ccccc1 (stereo not shown),16.9
3,CCc1nc2sc3c(=O)[nH]cnc3c2c2c1CSC(C)(C)C2,10.4
4,CC(C)C(NC(=O)CN(c1ccc2c(c1)OCCO2)S(=O)(=O)c1ccccc1)C(C)C,-2.43
5,O=C(N/N=C/c1ccco1)c1cccc([N+](=O)[O-])c1,7.35
6,CCOc1ccccc1NC(C)C(=O)NC(=O)NC1CCCCC1 (stereo not shown),-5.05
7,CCN(CC(=O)NCc1ccc(F)cc1)Cc1nc2ccccc2c(=O)[nH]1,-8.93
8,COc1ccc(CCN2C(=O)N[C@@H](C(C)C)C2=O)cc1,11.9
9,Cc1cc(/C=N/Nc2nc(N)ncc2[N+](=O)[O-])c(C)n1-c1cccc(C(F)(F)F)c1,21.2
10,COc1cccc(NC(=O)CN2C(=O)C(c3ccc(C)cc3)=NC23CCCCCC3)c1,8
11,Cc1c(C(=O)N2CCCCC2)c(S(=O)(=O)NCCc2ccc(S(N)(=O)=O)cc2)c(C)n1C,-0.839
12,Cc1cc(C)nc(NC(=O)c2c(-c3ccccc3Cl)noc2C)n1,12.4
13,Clc1ccc(-c2nnc(-c3ccccc3)c(N3CCSCC3)n2)cc1,10.6
14,COc1ccc(-c2ccc(CNCCCN3CCOCC3)o2)cc1Cl.Cl,12.8
15,COc1ccc(CC2(CO)CCN(Cc3cnn(-c4ccccc4)c3)CC2)cc1,-57.2
16,COc1ccc(-c2nnc(SCC(=O)/C(C#N)=C(\C)N)o2)cc1,-4.9
17,CCN1CCN(C(=O)c2ccc(CS(=O)Cc3ccc(C)cc3)o2)CC1 (stereo not shown),15.9
18,COc1ccccc1NC(=O)CN(c1ccc(C23CC4CC(CC(C4)C2)C3)cc1)S(C)(=O)=O,1.79
19,CCS(=O)(=O)N1CCN(c2cc3c(cc2[N+](=O)[O-])n(C)c(=O)n3C)CC1,14
20,Cc1cc(=O)[nH]c(Nc2c(C)n(C)n(-c3ccccc3)c2=O)n1,3.24
21,COc1ccccc1-c1cc2nc(C)c(CCC(=O)NCc3ccco3)c(C)n2n1,-3.36
22,Cc1ccc(-n2c(=O)c(C#N)cc3c(=O)n4ccccc4nc32)cc1,2.63

row,Compound,"hERG current change (%, negative = inhibition) at 1uM [%]"
1,CC1(C)Cc2cccc(OCC(=O)Nc3cccnc3Cl)c2O1,4.96
2,CCc1cc2c3c(c1)C1(C(=O)N3C(C)(C)CC2C)C(C#N)=C(N)N2C(=C1C#N)Nc1ccccc12 (stereo not shown),3.45
3,Cc1ccc(/C=N/Nc2ccc3c(C(F)(F)F)cc(C(F)(F)F)nc3n2)cc1,15.3
4,COc1ccccc1NC(=O)c1ccc(NS(=O)(=O)c2c(C)noc2C)cc1,11.6
5,CC(C)OCCCNC(=O)c1cc2c(=O)n(C)c3ccccc3c2n1C,9.53
6,COC(=O)C1=C(C)NC(=O)/C1=C/c1ccc(CNS(=O)(=O)c2ccc(C)cc2)o1,11.1
7,NS(=O)(=O)c1ccc2nc(NC(=O)c3ccc4c(c3)OCCO4)sc2c1,20.1
8,O=C(CSc1nc(C(F)(F)F)cc(=O)[nH]1)N1CCCC1,21.9
9,Cc1nn(CC(=O)NCc2ccccc2)c(=O)c2ccccc12,-1.97
10,COc1ccc(-c2nc3c(c(SCC(=O)N4CCCC4)n2)COC(C)(C)C3)cc1,4.96
11,CN(C(=O)CC1C(=O)NCCN1Cc1cccc(F)c1F)C1CC(C)(C)NC(C)(C)C1 (stereo not shown),24.2
12,O=C(Nc1ccccc1)Nc1ccc(Cl)nc1Cl,15.6
13,C=CCN(c1ccc(C(=O)Nc2cccc([N+](=O)[O-])c2)cc1)S(C)(=O)=O,11.6
14,O=C(COC(=O)CCNS(=O)(=O)c1ccc(Cl)cc1)NCc1ccco1,2.55
15,CC(C)NC1=C(Cl)C(=O)c2ccccc2C1=O,15.1
16,CC(=O)Nc1cccc(NC(=O)C2CCCN2C(=O)Nc2cccc(C)c2)c1 (stereo not shown),6.47
17,CCS(=O)(=O)N1CCCC(C(=O)NCc2ccc3c(c2)OCO3)C1 (stereo not shown),7.19
18,CCc1cccc(NC(=S)N(CCN(C)C)C(C)c2ccncc2)c1 (stereo not shown),-5.84
19,Cn1c(Cc2c[nH]c3ccccc23)n[nH]c1=S,8.98
20,CCOc1ccc(Cl)cc1S(=O)(=O)N1CCC(C(=O)N2CCCC2)CC1,12.7
21,CNC(=O)c1ccsc1NC(=O)CCS(=O)(=O)c1ccc(Cl)cc1,10.2
22,Cc1ccc(C2Nc3ccc4ccccc4c3C3=C2C(=O)CC(C)(C)C3)o1 (stereo not shown),7.69

row,Compound,"hERG current change (%, negative = inhibition) at 1uM [%]"
1,Cc1cc2cc(CN(Cc3ccco3)C(=O)C3CCCCC3)c(=O)[nH]c2cc1C,-5.65
2,O=C(Cc1ccsc1)NCC(=O)Nc1ccc(F)c(F)c1,7.22
3,CN(C)c1nc(N)nc(N(c2ccccc2)c2ccccc2)n1,6.27
4,Cc1ccc2sc(N(CCCN(C)C)C(=O)CCS(=O)(=O)c3ccccc3)nc2c1C,3.82
5,CCc1ccc(NC(=O)C(=O)NCCOc2ccccc2Cl)cc1,10.7
6,CC(=O)c1ccc(N2CCN(C(=O)c3cccs3)CC2)c(F)c1,4.76
7,CN(C)/C=C1/Sc2ccccc2C1=O,13.5
8,Cc1ccc(-n2c(SCC(=O)N/N=C/C=C/c3ccccc3[N+](=O)[O-])nc3ccccc3c2=O)cc1,5.85
9,Cc1ccc(C(=O)C(C)OC(=O)c2nc(Cl)ccc2Cl)cc1 (stereo not shown),13.2
10,Cc1ccc2c(c1Br)/C(=N/N1C(=O)c3ccccc3C1=O)C(=O)N2,17
11,N/C(=N\NC(=O)Nc1ccccc1)c1ccccn1,4.06
12,O=C(Nc1ccc(Cl)c(C(F)(F)F)c1)[C@@H]1CC=C[C@@H]2CCN(Cc3ccc(Cl)c(Cl)c3)C(=O)[C@@H]21,23.5
13,O=C(CCn1c(=O)c2sccc2n(CC(=O)NCc2ccco2)c1=O)NCc1ccccc1,11.2
14,COC(=O)C1=C(N)OC2=C(C(=O)CC(C)(C)C2)C1c1cccnc1 (stereo not shown),17.9
15,Cc1ccc(N(C)C(=O)c2ccc3c(Cl)c4c(nc3c2)CCC4)cc1C,12.6
16,COC(=O)CN1C(=O)C(O)(CC(=O)c2ccc(Br)cc2)c2ccccc21 (stereo not shown),9.18
17,COc1ccccc1N=Nc1c(C)n[nH]c1C,12.6
18,O=C(O)c1cccc(NC(=O)c2cc(-c3cccc(Cl)c3)nc3ccccc23)c1,23
19,CCOc1ccc(CC(=O)NNC(=S)Nc2ccccc2)cc1Br,7.8
20,O=C(NCC(c1ccco1)N1CCN(c2ccc(F)cc2)CC1)c1ccc2c(c1)OCO2 (stereo not shown),4.31
21,COC(=O)c1ccc(NC(=O)c2cnc3scc(C)n3c2=O)cc1,4.57
22,COCCn1c(SCc2ccc(F)cc2)nc2c1c(=O)[nH]c(=O)n2C,-4.05

row,Compound,"hERG current change (%, negative = inhibition) at 1uM [%]"
1,Cc1cc(C)n2c(nc3ccccc32)c1C(=O)NCc1ccccc1,14.2
2,CCCS(=O)(=O)N1CCCC(C(=O)NCCCN(C)Cc2ccccc2)C1 (stereo not shown),6.15
3,CC1=C(C(=O)OC2CCCCC2)C(c2ccc(F)cc2)NC(=O)N1 (stereo not shown),8.19
4,CCS(=O)(=O)Nc1cccc(C2=NN(S(=O)(=O)c3ccc(C)cc3)C(c3ccco3)C2)c1 (stereo not shown),15.8
5,O=c1[nH]c2ccccc2n1CCCOc1ccccc1,11.2
6,COc1ccc(-c2nnc(SC(C)C(=O)Nc3c(C)n(C)n(-c4ccccc4)c3=O)o2)cc1 (stereo not shown),4.81
7,CCOc1ccc(NC(=O)CN(C)C(=O)CCNC(=O)c2ccccc2Cl)cc1OCC,7.89
8,Cc1cc(N2CCOCC2)nc2ccc(NC(=S)NCCN(C)C)cc12,14.3
9,C=CCN(C(=O)CCC(=O)Nc1cc(C)on1)C(C(=O)NC1CCCC1)c1ccc(OC)c(OC)c1 (stereo not shown),8.63
10,O=C(CN1CCN(c2ccccc2F)CC1)N1CCc2ccccc21,14.5
11,COc1ccc(-c2c(C#N)sc(C(N)=O)c2-c2ccc(OC)cc2)cc1,13.4
12,Cl.O=[N+]([O-])c1cccnc1N1CCN(Cc2ccc3c(c2)OCO3)CC1,-0.256
13,CCOC(=O)N1CCC(Nc2cc(C)nc3c(-c4ccccc4OC)c(C)nn23)CC1,-2.79
14,COCCNC(=S)N(CCCN(C)C)Cc1cc2cc3c(cc2[nH]c1=O)OCCO3,21.8
15,COc1ccc(OC)c(NC(=O)c2ccc(NC3=NC4CS(=O)(=O)CC4S3)cc2)c1 (stereo not shown),7.25
16,CC[N+](CC)(CC)CCCCOc1ccc2c(c1)C(=O)c1cc(OCCCC[N+](CC)(CC)CC)ccc1-2.[I-],15
17,CCCc1[nH]nc2c1C(C1CCCCC1)C(C#N)=C(N)O2 (stereo not shown),9.47
18,COc1ccc(CNC(=O)C(=O)NCc2ccncc2)cc1,18.2
19,CC(=O)NCCOC(=O)Nc1sc(=S)n(C)c1C,2.84
